About 2,200 (0.71%) of roughly 310,000 compounds showed an effect of 50% or more. The effect is printed as a negative number. Some of the results follow.

The target of the assay is human ether-à-go-go-related gene (hERG) potassium channel (human, UniProt Q12809). The assay can be described thus: primary screen, population patch clamp on CHO cells stably expressing hERG.
human ether-à-go-go-related gene (hERG) potassium channel, sequence (Q12809 whole entry, looked up): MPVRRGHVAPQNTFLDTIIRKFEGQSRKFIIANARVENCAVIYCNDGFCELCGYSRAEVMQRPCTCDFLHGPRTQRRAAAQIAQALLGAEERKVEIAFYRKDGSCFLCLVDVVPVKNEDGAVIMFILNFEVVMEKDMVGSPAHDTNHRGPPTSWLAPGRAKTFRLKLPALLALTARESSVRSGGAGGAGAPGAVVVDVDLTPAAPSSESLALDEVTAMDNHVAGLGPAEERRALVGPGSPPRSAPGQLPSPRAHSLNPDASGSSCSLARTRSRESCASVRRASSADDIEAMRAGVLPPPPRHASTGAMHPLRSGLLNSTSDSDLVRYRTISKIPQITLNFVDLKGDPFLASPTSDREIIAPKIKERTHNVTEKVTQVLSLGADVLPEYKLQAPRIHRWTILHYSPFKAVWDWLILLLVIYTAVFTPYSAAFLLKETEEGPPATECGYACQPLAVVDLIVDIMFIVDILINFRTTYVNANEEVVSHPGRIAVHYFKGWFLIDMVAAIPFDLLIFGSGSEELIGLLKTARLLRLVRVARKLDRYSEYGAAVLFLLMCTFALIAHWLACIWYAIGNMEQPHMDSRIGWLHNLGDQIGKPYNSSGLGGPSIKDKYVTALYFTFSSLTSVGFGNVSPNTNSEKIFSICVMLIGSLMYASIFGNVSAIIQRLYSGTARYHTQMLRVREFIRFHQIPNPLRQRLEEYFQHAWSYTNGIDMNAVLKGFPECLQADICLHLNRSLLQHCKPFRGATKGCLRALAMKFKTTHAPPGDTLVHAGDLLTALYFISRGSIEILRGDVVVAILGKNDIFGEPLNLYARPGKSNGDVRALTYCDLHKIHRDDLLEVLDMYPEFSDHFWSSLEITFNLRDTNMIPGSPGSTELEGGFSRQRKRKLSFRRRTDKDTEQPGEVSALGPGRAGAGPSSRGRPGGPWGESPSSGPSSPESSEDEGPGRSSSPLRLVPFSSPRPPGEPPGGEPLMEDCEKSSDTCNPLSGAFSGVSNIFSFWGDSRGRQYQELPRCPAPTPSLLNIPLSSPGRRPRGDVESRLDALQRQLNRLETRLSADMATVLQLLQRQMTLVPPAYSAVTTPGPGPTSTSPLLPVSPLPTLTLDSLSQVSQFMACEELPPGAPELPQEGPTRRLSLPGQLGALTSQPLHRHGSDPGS
Take `O=C(/C=C\c1ccccc1)Nc1ccc(NC(=O)c2ccco2)cc1`: the “hERG current change (%, negative = inhibition) at 1uM” value is reported as 12%. The value for `CC(OC(=O)CNS(=O)(=O)c1ccc(C#N)cc1)C(=O)Nc1ccc(Cl)cn1` (stereo not shown) was -24.2%; that for `CCOc1cc2c(cc1OCC)-n1cccc1C(c1cc(C)c(OC)cc1C)NC2.Cl` (stereo not shown) was -1.29%; that for `COc1ccccc1Nc1nc(C)cc(=O)[nH]1` was -2.18%. Regarding `CCCCCOc1ccccc1C(=O)NCC(=O)O`, the “hERG current change (%, negative = inhibition) at 1uM” value stood at 6.44%.

For `CN(CC(=O)NCc1ccc(Cl)cc1)S(=O)(=O)c1cccc2nsnc12`, the “hERG current change (%, negative = inhibition) at 1uM” value is on record as -5.69%. The value for `Cc1cc(N2C(=O)C(O)=C(C(=O)c3ccco3)C2c2cccnc2)no1` (stereo not shown) was 12.6%; that for `Cc1ccccc1N=C(NOCc1ccc(Cl)cc1Cl)c1nonc1N` was -0.598%; that for `CC1(C)CC2(CCCN(C(=S)Nc3ccccc3)C2)CCO1` (stereo not shown) was 16.2%. As for `Cc1cc2c(cc1S(=O)(=O)NCc1ccccc1)NC(=O)CO2`, the “hERG current change (%, negative = inhibition) at 1uM” value amounted to 4%. Turning to `COc1ccccc1-c1cc(C(=O)N/N=C/c2ccc(C)s2)c2ccccc2n1`, the “hERG current change (%, negative = inhibition) at 1uM” value was found to be 16.3%. Under `COc1ccc(-c2ccc(/C=C3/C(=N)N4C(C)=CSC4=NC3=O)o2)c([N+](=O)[O-])c1` stands 14.4%. For `Nc1cc(N)nc(SCC(=O)NCCC2=CCCCC2)n1`, the “hERG current change (%, negative = inhibition) at 1uM” value is given as 3.85%. The value for `COc1ccc(/C=C2\SC(=N)N(c3ccc(F)cc3)C2=O)cc1OC` was 15.2%; that for `CCc1nnc(NC(=O)C2Cc3ccccc3C(=O)O2)s1` (stereo not shown) was 6.1%. Consider `O=C(O)CCNS(=O)(=O)c1cccc2nsnc12`, for which the “hERG current change (%, negative = inhibition) at 1uM” value worked out at 11.7%. The value for `Cc1ccc(C2C(C=Nc3c(C)n(C)n(-c4ccccc4)c3=O)=C(c3ccccc3)Oc3ccccc32)cc1` (stereo not shown) was 13.3%; that for `COC(=O)c1sccc1NC(=O)CSc1ccccc1NC(=O)CNC(C)C` was 5.26%; that for `COc1ccc(CCNC(=O)CSc2ncnc3c2oc2ccccc23)cc1OC` was 0.642%. The value for `COC(=O)C1C(=O)C2=C(CC1C)NC(C)=C(C(=O)OC1CCCC1)C2c1ccc(N(C)C)cc1` (stereo not shown) was 6.86%; that for `CCOC(=O)c1ccccc1NC(=O)COC(=O)C1CCCC1` was 9.69%; that for `O=[N+]([O-])c1cc(S(=O)(=O)N2CCCC2)ccc1N/N=C/c1cccnc1` was 14%. As to `O=C(O)c1nn(-c2ccccc2)ccc1=O`, the “hERG current change (%, negative = inhibition) at 1uM” value is 8.64%. On to `Cc1cc(C)n(-c2cc(N3CCN(C(=O)c4ccc(C(C)(C)C)cc4)CC3)ccc2[N+](=O)[O-])n1`, for which the “hERG current change (%, negative = inhibition) at 1uM” value was 3.39%. Under `COc1ccc(C2C3=C(CC(C)(C)CC3=O)Oc3ncn(CC(C)C)c(=N)c32)cc1` (stereo not shown) stands -31%; under `Cc1ccccc1C(=O)O/N=C(\c1ccccc1)c1ccccn1`, -2.7%. As to `COc1ccc([N+](=O)[O-])cc1NC(=O)C(C)Sc1nc(-c2ccccc2)cs1` (stereo not shown), the “hERG current change (%, negative = inhibition) at 1uM” value came out at 15.8%.

As for `O=C(CN(C(=O)c1csnn1)c1ccc(F)c(Cl)c1)NCc1ccc(F)cc1`, the “hERG current change (%, negative = inhibition) at 1uM” value is reported as 22.8%. As for `CC1(c2ccc(OC(F)F)cc2)NC(=O)N(CC(=O)Nc2cccc(S(N)(=O)=O)c2)C1=O` (stereo not shown), the “hERG current change (%, negative = inhibition) at 1uM” value is recorded as 8.76%. Turning to `O=C(CN1CCN(c2nc(-c3ccc(F)cc3)cs2)CC1)NCc1ccc2c(c1)OCO2`, the “hERG current change (%, negative = inhibition) at 1uM” value is -17.1%. Under `COc1cc(OC)cc(C(=O)NCC(=O)Nc2ccc(OC)c(Cl)c2)c1` stands 4.05%. Under `Oc1ccc(N2CCN(C(c3ccccn3)c3nnnn3C3CCCC3)CC2)cc1` (stereo not shown) stands -5.57%. Consider `Nc1nonc1C(=O)NCCNC(=O)c1ccc(Cl)cc1`, for which the “hERG current change (%, negative = inhibition) at 1uM” value is listed as 7.86%. Under `CC(=O)N1CCc2cc(S(=O)(=O)CCC(=O)Nc3ccc(Cl)cc3F)ccc21` stands 11.3%. Under `Cc1cc(NC(=O)CC(CN(C)S(=O)(=O)c2ccccc2)c2ccccc2)no1` (stereo not shown) stands -2.11%.

Turning to `O=C(Nc1cccc(C(F)(F)F)c1)C1CCN(S(=O)(=O)c2cnc[nH]2)CC1`, the “hERG current change (%, negative = inhibition) at 1uM” value turned out to be 14%. Consider `COc1ccc(CC(=O)OCN2C(=O)c3ccccc3C2=O)cc1OC`, for which the “hERG current change (%, negative = inhibition) at 1uM” value stood at 14.5%. As for `Fc1ccc(-c2csc(-c3ccccn3)n2)cc1F`, the “hERG current change (%, negative = inhibition) at 1uM” value came to 13%. For the compound `COc1cc2c(cc1OC)-c1cc(NC3CCCCC3)nc(=O)n1CC2`, the “hERG current change (%, negative = inhibition) at 1uM” value is -0.505%. Under `CCn1c(=O)c(-[n+]2ccccc2)c(O)c2ccccc21.[Cl-]` stands 18.4%; under `CCN1CCN(C(C)C(=O)Nc2c(C)n(C)n(-c3ccccc3)c2=O)CC1.O=C(O)C(=O)O` (stereo not shown), 20.4%; under `COc1ccccc1N1CCN(C(CNS(=O)(=O)c2ccccc2)c2ccccc2)CC1` (stereo not shown), 15.1%. The value for `Cc1ccc(CNc2ccc3c(c2)OCO3)c(C)c1` was 0.499%.

Values taken from publication PMC4336329 (PLoS ONE, 2015).
